PubChem BioAssay AID485344 (National Center for Advancing Translational Sciences (NCATS), 2010)
Hit rate of the full screen: of about 340,000 compounds, about 6,900 (2%) were called active. Rule as the data show it: active = inhibition above about 30%; inactive = below that, where a call was filed. This is a selection; strong and weak results do not stand in their true shares. Where no call is shown, the source filed none.

Each compound was assayed against D(2) dopamine receptor (Homo sapiens) (UniProt P14416) (assay: HTS Assay for Allosteric Antagonists of the Human D2 Dopamine Receptor: Primary Screen for Antagonists). Conditions: HEK293 TREx D2 cells, calcium flux, dopamine EC80; at 10 µM; stronger effect = higher value.
In short: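 Read-out: kinetic calcium fluorescence (1 cycle/s) in inducible HEK293 T-REx D2 cells after an EC80 dopamine addition that followed 180 s compound preincubation. Loss of the dopamine response indicates antagonism.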
Also: 0% is about no effect.

UniProt P14416, sequence (P14416 whole entry, looked up): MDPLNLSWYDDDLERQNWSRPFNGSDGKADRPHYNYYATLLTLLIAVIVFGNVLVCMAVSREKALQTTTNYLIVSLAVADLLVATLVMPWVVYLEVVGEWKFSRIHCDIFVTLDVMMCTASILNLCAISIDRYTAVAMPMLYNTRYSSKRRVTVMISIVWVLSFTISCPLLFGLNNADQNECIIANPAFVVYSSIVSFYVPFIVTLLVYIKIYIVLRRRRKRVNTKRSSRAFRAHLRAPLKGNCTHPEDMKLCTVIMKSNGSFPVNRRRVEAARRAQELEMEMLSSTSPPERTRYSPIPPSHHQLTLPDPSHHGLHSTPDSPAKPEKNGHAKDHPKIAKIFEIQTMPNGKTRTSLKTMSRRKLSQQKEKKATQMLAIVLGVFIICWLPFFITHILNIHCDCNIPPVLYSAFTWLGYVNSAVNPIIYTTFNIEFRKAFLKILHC

Q: How did the inhibition turn out when O=C(Nc1cccc(NC(=O)c2ccccc2F)c1)c1ccccc1 was run?
A: The inhibition was 0.165%.

Q: With O=C(Cn1cc(S(=O)(=O)N2CCCC2)c(S(=O)(=O)N2CCCC2)c1)Nc1ccccc1 as the compound, how does the inhibition read?
A: The inhibition was -6.52%.

Q: Which inhibition does the source give for COc1cc(C2CC(=O)c3cnc(N4CCN(CCO)CC4)nc3C2)cc(OC)c1OC (stereo unspecified) here?
A: The inhibition was 3.83%.

Q: How did the inhibition turn out when Cn1c(=O)c(=O)n(C)c2cc(S(=O)(=O)N3CCN(c4ccc(F)cc4)CC3)ccc21 was run?
A: The inhibition was 11.5%.

Q: For CCOC(=O)c1ccc(N2C(=O)c3n[nH]c(-c4ccco4)c3C2c2ccc(OCC)cc2)cc1 (stereo unspecified), which inhibition is on record?
A: The inhibition was 12.9%.

Q: How did the inhibition turn out when CC(C)c1ccc(NC(=O)CC2NCCNC2=O)cc1 (stereo unspecified) was run?
A: Its inhibition is 10.6%.

Q: With O=C(CSc1nc2c(oc3ccccc32)c(=O)n1-c1ccccc1)Nc1ccccc1F as the compound, how does the inhibition read?
A: Its inhibition is 10.1%.

Q: How did the inhibition turn out when COc1ccc2c(Sc3ccc(C)cc3)c(C(=O)NCc3ccc(F)cc3)[nH]c2c1 was run?
A: Its inhibition is 9.7%.

Q: COc1ccccc1NC(=O)C1=C(C)Nc2nc(CCCO)nn2C1c1cccc(O)c1 (stereo unspecified) was tested. Which inhibition did it give?
A: The inhibition was 7.2%.

Q: CCOC(=O)c1c(C)[nH]c(CCC(=O)Nc2c(C)cccc2CC)c1C was tested. Which inhibition did it give?
A: Its inhibition is -6.12%.

Q: CCNc1ncnc2c1nnn2C was tested. Which inhibition did it give?
A: Its inhibition is -9.13%.

Q: For Cc1cccc(-c2nc3ccccc3n2Cc2ccccc2)c1, which inhibition is on record?
A: The inhibition was 6.49%.

Q: For CCC(=O)Nc1ccccc1-c1nc2ccccc2n(CC(=O)c2ccc(Cl)cc2)c1=O, which inhibition is on record?
A: The inhibition was 21.5%.

Q: How did the inhibition turn out when CCOC(=O)N1CCc2c(sc(NCc3cccc(F)c3)c2C(=O)Nc2ccc(OC)cc2OC)C1 was run?
A: The inhibition was 7.67%.

Q: Which inhibition does the source give for CN(C/C=C/c1ccccc1[N+](=O)[O-])Cc1ccccc1 here?
A: The inhibition was active: 56.7%.

Q: Cc1ccc(S(=O)(=O)c2nnn3c2nc(NC(C)C)c2sccc23)cc1 was tested. Which inhibition did it give?
A: The inhibition was 17.8%.

Q: How did the inhibition turn out when CCc1ccc(OCc2cc(=O)n3c4c(sc3n2)CCCC4)cc1 was run?
A: Its inhibition is 2.42%.

Q: For CCCN(CCC)CCCNC(=O)c1cn(CC)c2ccc(S(=O)(=O)N(C)C3CCCCC3)cc2c1=O, which inhibition is on record?
A: Its inhibition is 4.28%.

Q: With COc1cccc(N2CCN(C(=O)C3Cc4ccccc4N3C(C)=O)CC2)c1 (stereo unspecified) as the compound, how does the inhibition read?
A: The inhibition was -18.1%.

Q: For O=C(C1CCC1)N1CCCc2cc(S(=O)(=O)N3CCN(c4ccccc4)CC3)ccc21, which inhibition is on record?
A: Its inhibition is -7.56%.

Q: For COc1ccccc1N1CCN(CC(O)COc2ccc(C)cc2C)CC1 (stereo unspecified), which inhibition is on record?
A: The inhibition was active: 75.9%.

Q: With O=C(Nc1nnc(C(F)(F)F)s1)c1ccc(Br)s1 as the compound, how does the inhibition read?
A: The inhibition was active: 34.8%.

Q: With COc1ccc(CC(=O)NCCc2sc3nc(-c4ccc(OC)cc4)nn3c2C)cc1 as the compound, how does the inhibition read?
A: Its inhibition is 17.2%.

Q: For CCC(=O)N1CCc2cc(Br)cc(S(=O)(=O)CCC(=O)N3CCN(c4ccc(F)cc4)CC3)c21, which inhibition is on record?
A: The inhibition was 7.21%.

Q: For Cc1ccccc1OCC(=O)OCc1cc(=O)n2nc(C3CC3)sc2n1, which inhibition is on record?
A: The inhibition was -12.1%.

Q: With COc1ccccc1NC(=O)CCn1nc(-c2ccccc2OC)c2c(C)cc(C)nc21 as the compound, how does the inhibition read?
A: Its inhibition is 7.69%.

Q: For Cc1ccccc1NC(=O)Nc1nnc(N2CCCCCC2)s1, which inhibition is on record?
A: The inhibition was 12.8%.

Q: Which inhibition does the source give for Cc1cc(C)c(C)c(OCC(=O)Nc2ccc(S(=O)(=O)Nc3nc(C)cc(C)n3)cc2)c1 here?
A: The inhibition was -10.2%.

Q: With O=C(CSC1=Nc2ccccc2N=C(c2ccc(F)cc2)C1)Nc1cccc(C(F)(F)F)c1 as the compound, how does the inhibition read?
A: The inhibition was 13.8%.

Q: CCc1ccc(NC(=O)CC2C(=O)N(c3cccc(C)c3)C(=O)N2CCC(C)C)cc1 (stereo unspecified) was tested. Which inhibition did it give?
A: The inhibition was 8.36%.

Q: Which inhibition does the source give for CCOC(=O)C1CCCN(C(=O)C2CCN(S(=O)(=O)c3c(C)noc3/C=C/c3ccccc3F)CC2)C1 (stereo unspecified) here?
A: The inhibition was 17.9%.

Q: For O=C(CN1CCN(Cc2ccccc2)CC1)N1CCCc2ccccc21, which inhibition is on record?
A: Its inhibition is active: 32.4%.

Q: How did the inhibition turn out when CCCCC1(C)OC(=O)C(=Cc2ccc(-c3ccc(Cl)c(C(=O)O)c3)o2)C(=O)O1 (stereo unspecified) was run?
A: Its inhibition is active: 41.9%.

Q: With COc1ccc(CNC(=O)CN(c2ccc(C(C)C)cc2)S(=O)(=O)c2c(C)nn(C)c2C)cc1 as the compound, how does the inhibition read?
A: Its inhibition is 8.25%.

Q: Which inhibition does the source give for COc1ccc(NC(=O)CSc2nc3ccccc3nc2N2CCC(C)CC2)cc1 here?
A: The inhibition was -6.2%.

Q: Cc1cccc(-c2noc(CN(C3CCCCC3)S(=O)(=O)c3ccc(F)cc3)n2)c1 was tested. Which inhibition did it give?
A: The inhibition was -8.38%.

Q: How did the inhibition turn out when CCC(C(=O)OCc1cc(=O)n2nc(C)sc2n1)c1ccccc1 (stereo unspecified) was run?
A: The inhibition was -26.5%.

Q: For Cn1c(N2CCN(c3ccccn3)CC2)nc2c1c(=O)n(Cc1ccc(Cl)cc1)c(=O)n2C, which inhibition is on record?
A: The inhibition was active: 48.7%.

Q: For COc1ccc2c(c1)-c1nc(NC(=O)c3ccc(OC)c(Br)c3)sc1CC2, which inhibition is on record?
A: Its inhibition is -9.2%.

Q: For COc1ccc(OC)c(NC(=O)c2c(NCc3sccc3C)sc3c2CCCCC3)c1, which inhibition is on record?
A: Its inhibition is -10.2%.

Q: Cc1ccc(C(=O)Nc2c(-c3ccccc3)nc3ccccn23)cc1 was tested. Which inhibition did it give?
A: The inhibition was 6.92%.

Q: With Cc1nnc(N2CCC(C(=O)Nc3ccc(F)cc3)CC2)c2nn(-c3ccc(Cl)cc3)c(C)c12 as the compound, how does the inhibition read?
A: The inhibition was 14.8%.

Q: Cc1ccc(C2c3[nH]c4ccccc4c3CCN2C(=O)c2ccccc2Br)cc1 (stereo unspecified) was tested. Which inhibition did it give?
A: The inhibition was -3.74%.

Q: How did the inhibition turn out when CCOc1ccc(-c2nonc2NC(=O)c2ccco2)cc1 was run?
A: The inhibition was 1.25%.

Q: With CC1=C(C(=O)NCc2cccc(Br)c2)C2(CCCCC2)OC1=O as the compound, how does the inhibition read?
A: Its inhibition is 18.8%.

Q: For CCCCOC(=O)/C(C#N)=C/c1ccc(-c2cccc(C(F)(F)F)c2)o1, which inhibition is on record?
A: Its inhibition is -6.37%.

Q: Which inhibition does the source give for CCOc1ccc(NC(=O)CSc2nc3c(oc4ccccc43)c(=O)n2-c2cc(C)cc(C)c2)cc1 here?
A: Its inhibition is -6.1%.

Q: N/C(=N\OC(=O)c1ccc2c(c1)OCO2)c1ccc(Br)cc1 was tested. Which inhibition did it give?
A: Its inhibition is active: 46.1%.

Q: For COc1cc(/C=C/c2nc(C#N)c(N3CCCCC3)o2)cc(OC)c1OC, which inhibition is on record?
A: Its inhibition is 0.54%.

Q: Which inhibition does the source give for COc1ccc(Br)cc1/C=N/NC(=O)C[n+]1ccccc1 here?
A: The inhibition was active: 40%.

Q: Cc1ccccc1CNC(=O)C1CCN(S(=O)(=O)Cc2ccccc2)CC1 was tested. Which inhibition did it give?
A: The inhibition was 8.82%.

Q: For Cc1ncc(CO)c2c1Oc1nc(-c3ccc(F)cc3)nc(SCC(=O)N3CCCCC3)c1C2, which inhibition is on record?
A: The inhibition was 22.9%.

Q: With Cc1ccc(CN2C(=O)N(c3ccc(F)cc3)C(=O)C2CC(=O)Nc2ccc(Cl)cc2)cc1 (stereo unspecified) as the compound, how does the inhibition read?
A: The inhibition was -16.4%.

Q: For Cc1ccc(NC(=O)CSc2nnc(-c3cc4occc4n3C)n2-c2ccccc2C)c(Cl)c1, which inhibition is on record?
A: The inhibition was 7.84%.

Q: With COC(=O)CN1C(=O)CSc2ccc(S(=O)(=O)Nc3cccc(Br)c3)cc21 as the compound, how does the inhibition read?
A: The inhibition was -1.15%.

Q: For Cc1ccc(C)c(Cn2c3ccccc3c3cnn(CC(=O)NC4CCC(C)CC4)c(=O)c32)c1 (stereo unspecified), which inhibition is on record?
A: Its inhibition is 8.28%.

Q: How did the inhibition turn out when COc1ccc(NC(=O)CSC2=Nc3ccccc3C3=NC(CCC(=O)NCc4cccs4)C(=O)N23)cc1 (stereo unspecified) was run?
A: Its inhibition is 3.03%.

Q: With O=C(NCCc1ccccc1)C1CCN(c2ncnc3c2nc2n3CCCCC2)CC1 as the compound, how does the inhibition read?
A: Its inhibition is 15.1%.

Q: With Cc1cc2nn(-c3ccccc3)nc2cc1NC(=O)COc1ccc(Cl)cc1 as the compound, how does the inhibition read?
A: Its inhibition is -21.5%.

Q: With Cc1nn(-c2ccc(F)cc2)c(-n2cccc2)c1C(=O)N1CCN(c2ccccc2)CC1 as the compound, how does the inhibition read?
A: The inhibition was -1.51%.

Q: For CCOc1ccc(Cn2nnc(C(=O)Nc3cccc(SC)c3)c2N)cc1, which inhibition is on record?
A: Its inhibition is -5.86%.
